The results in this text go back to publication PMC4336329 (PLoS ONE, 2015).

The campaign covered roughly 310,000 compounds. About 14,000 (4.5%) showed an effect of 50% or more. The effect is printed as a negative number. The list shows a part of the results.
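Further: peak tail current of the secondary pulse compared with the same well before compound.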

human ether-à-go-go-related gene (hERG) potassium channel, sequence (Q12809 whole entry, looked up): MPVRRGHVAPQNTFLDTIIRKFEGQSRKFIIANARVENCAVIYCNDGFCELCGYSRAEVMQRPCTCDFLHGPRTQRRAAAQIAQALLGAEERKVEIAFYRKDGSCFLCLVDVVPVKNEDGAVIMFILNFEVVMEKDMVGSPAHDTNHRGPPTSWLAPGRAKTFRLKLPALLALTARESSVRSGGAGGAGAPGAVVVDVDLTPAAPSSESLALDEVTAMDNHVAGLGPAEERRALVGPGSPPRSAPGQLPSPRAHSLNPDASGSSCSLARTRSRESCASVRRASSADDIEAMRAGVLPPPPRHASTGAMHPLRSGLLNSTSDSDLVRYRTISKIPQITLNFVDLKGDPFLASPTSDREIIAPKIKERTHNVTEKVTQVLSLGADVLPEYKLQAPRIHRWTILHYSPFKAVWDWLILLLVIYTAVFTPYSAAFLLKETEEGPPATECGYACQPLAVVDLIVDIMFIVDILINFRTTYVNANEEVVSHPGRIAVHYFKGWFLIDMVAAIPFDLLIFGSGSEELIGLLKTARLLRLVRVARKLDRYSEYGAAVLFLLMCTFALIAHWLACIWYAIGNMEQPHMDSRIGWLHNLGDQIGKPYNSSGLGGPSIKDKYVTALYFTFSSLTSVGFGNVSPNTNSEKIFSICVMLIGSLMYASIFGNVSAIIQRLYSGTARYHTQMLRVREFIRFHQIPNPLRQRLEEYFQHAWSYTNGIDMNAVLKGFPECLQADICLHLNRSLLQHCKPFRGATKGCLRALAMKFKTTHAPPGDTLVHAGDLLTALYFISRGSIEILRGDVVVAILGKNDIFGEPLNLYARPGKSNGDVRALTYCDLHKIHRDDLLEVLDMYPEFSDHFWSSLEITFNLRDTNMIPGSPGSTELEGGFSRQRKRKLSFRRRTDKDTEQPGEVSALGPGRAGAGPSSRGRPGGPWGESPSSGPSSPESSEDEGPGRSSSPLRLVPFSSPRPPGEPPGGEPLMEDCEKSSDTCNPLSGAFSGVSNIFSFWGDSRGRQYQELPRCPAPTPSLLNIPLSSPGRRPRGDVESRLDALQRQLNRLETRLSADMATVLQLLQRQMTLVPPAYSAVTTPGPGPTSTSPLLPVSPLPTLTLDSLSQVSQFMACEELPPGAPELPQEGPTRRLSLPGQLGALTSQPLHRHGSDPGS

The test concerns the target human ether-à-go-go-related gene (hERG) potassium channel (human, UniProt Q12809). Nature of the test: primary screen, population patch clamp on CHO cells stably expressing hERG.
With `CCN(CC)c1ccc2c(c1)OC(N)=C(C#N)C2c1cccnc1` (centres unmarked), the “hERG current change (%, negative = inhibition) at 10uM” value is on record as -10.1%.

For the molecule `CC(=O)N1CCN(Cc2nc3cc(NC(=O)c4cccc(Br)c4)ccc3n2C)CC1`, the “hERG current change (%, negative = inhibition) at 10uM” value is recorded as -70%.

As to `COc1ccc(CN2CCN(S(=O)(=O)c3ccccc3)CC2)cc1Br.O=C(O)C(=O)O`, the “hERG current change (%, negative = inhibition) at 10uM” value was -13.2%.

As for `O=C1OCc2cc(NC(=O)C3COc4ccccc4O3)ccc21` (centres unmarked), the “hERG current change (%, negative = inhibition) at 10uM” value is reported as -6.15%.

As for `COc1ccccc1C(=O)NNC(=O)c1ccccc1[N+](=O)[O-]`, the “hERG current change (%, negative = inhibition) at 10uM” value worked out at 5.7%.

`COc1ccc(C2NC(=O)CCC2[N+](=O)[O-])cc1OC` (centres unmarked): the “hERG current change (%, negative = inhibition) at 10uM” value amounted to 10.1%.

Regarding `CC12CCC(C(=O)Nc3ccccc3)(C(Br)C1=O)C2(C)C` (centres unmarked), the “hERG current change (%, negative = inhibition) at 10uM” value is -13.8%.

Take `COc1ccccc1NC(=O)COc1ccc(C(=O)NCc2ccccc2)cc1OC`: the “hERG current change (%, negative = inhibition) at 10uM” value is 15.8%.

With `CCNC(=O)CC1C(=O)N(c2ccccc2)C(=O)N1CCC(C)C` (centres unmarked), the “hERG current change (%, negative = inhibition) at 10uM” value was 5.26%.

Regarding `CC1(C)Cc2ccccc2C(/C(C#N)=N/O)=N1`, the “hERG current change (%, negative = inhibition) at 10uM” value came to 5.63%.

For the molecule `S=c1nn[nH]n1C12CC3CC(CC(C3)C1)C2`, the “hERG current change (%, negative = inhibition) at 10uM” value was found to be 15.5%.

For the molecule `CC1(C)CC(NC(=O)C(=O)NCCc2ccc(Cl)cc2)CC(C)(C)N1`, the “hERG current change (%, negative = inhibition) at 10uM” value was -13.9%.

For the molecule `Cc1cc(C)cc(OCCn2ccnc2)c1`, the “hERG current change (%, negative = inhibition) at 10uM” value stood at 12.1%.

For the molecule `COc1cc(/C=C2\C(=N)N3N=C(S(C)(=O)=O)SC3=NC2=O)cc(OC)c1OCCOc1cccc(C)c1`, the “hERG current change (%, negative = inhibition) at 10uM” value stood at 18.7%.

Take `CC(C)=C1SC(N2CCN(c3ccc(Cl)cc3)CC2)=NC1=O`: the “hERG current change (%, negative = inhibition) at 10uM” value was -10.7%.

For `C/C(N)=C(/C#N)C(=O)CSc1nc2ccccc2n1CC(C)C`, the “hERG current change (%, negative = inhibition) at 10uM” value worked out at 9.78%.

`COc1ccc(C(=O)Nc2nnc(SCC(=O)NC3CCCC3)s2)c(OC)c1`: the “hERG current change (%, negative = inhibition) at 10uM” value was determined as 13.3%.

As to `CCOc1nc(Nc2ccc(OC)cc2)nc(N2CCOCC2)n1`, the “hERG current change (%, negative = inhibition) at 10uM” value was -4.52%.

For `Cc1ccc(S(=O)(=O)N2CCC(C(=O)NNC(=O)C3CC3)CC2)cc1Cl`, the “hERG current change (%, negative = inhibition) at 10uM” value is 10.9%.

As to `CS(=O)(=O)N1CCN(c2nc(-c3ccc(F)cc3)cs2)CC1`, the “hERG current change (%, negative = inhibition) at 10uM” value was -77.2%.

As for `Cl.Oc1ccc(C2=CSC3=NCCN23)cc1O`, the “hERG current change (%, negative = inhibition) at 10uM” value is listed as -1.2%.

With `Oc1ccccc1CNc1cnc2ccccc2c1`, the “hERG current change (%, negative = inhibition) at 10uM” value came out at 0.673%.

For the molecule `COc1ccc(C(=O)C2CCCN(Cc3cn[nH]c3-c3ccccc3)C2)cc1OC` (centres unmarked), the “hERG current change (%, negative = inhibition) at 10uM” value is given as -74%.

On to `CC(C)COP(=O)(OCC(C)C)C(Nc1ccccc1)c1ccc(F)cc1` (centres unmarked), for which the “hERG current change (%, negative = inhibition) at 10uM” value was 4.06%.

In the case of `O=C(CSc1nnc(SCc2ccccc2Cl)s1)N/N=C/c1ccc(C(=O)O)cc1`, the “hERG current change (%, negative = inhibition) at 10uM” value amounted to 2.71%.

For `CCOC(=O)N1CCC(NC(=O)C2CCN(c3nc(-c4ccc(OC)cc4)no3)CC2)CC1`, the “hERG current change (%, negative = inhibition) at 10uM” value is on record as 6.58%.

Take `CCOC(=O)C1(CCc2ccccc2)CCN(Cc2ccc(C(=O)OC)cc2)CC1`: the “hERG current change (%, negative = inhibition) at 10uM” value is reported as -91.8%.

Turning to `COc1cccc(CNC(=S)NC2CCCC2)c1`, the “hERG current change (%, negative = inhibition) at 10uM” value was found to be 3.42%.

On to `Cl.O=C(NCCN1CCCC1)c1ccc(Br)cc1`, for which the “hERG current change (%, negative = inhibition) at 10uM” value was -11.9%.

For `CC1=CC(c2ccc(Cl)cc2)n2nc(NC(=O)CCCC(=O)O)nc2N1` (centres unmarked), the “hERG current change (%, negative = inhibition) at 10uM” value is given as 21%.

Take `O=C(O)CCCC(=O)Nc1ccc(C(=O)NCc2cccnc2)cc1`: the “hERG current change (%, negative = inhibition) at 10uM” value worked out at 9.35%.

As to `Cc1ccc(N2C(=O)c3cccc4c(C(=O)O)ccc(c34)C2=O)cc1`, the “hERG current change (%, negative = inhibition) at 10uM” value is 8.57%.

For `Cc1cc(C)cc(OCC(=O)OCC(=O)c2cc(C)n(C3CC3)c2C)c1`, the “hERG current change (%, negative = inhibition) at 10uM” value is reported as -4.06%.

As for `Nc1ccc(C(=O)Nc2ccccc2C(=O)O)cc1`, the “hERG current change (%, negative = inhibition) at 10uM” value is 10.2%.

Consider `Cc1cccc(NC2=NC(C)(C)N=C(N)N2)c1`, for which the “hERG current change (%, negative = inhibition) at 10uM” value was found to be 9.04%.

Turning to `CCOc1ccccc1NC(=O)c1cccc(NC(=O)c2ccco2)c1`, the “hERG current change (%, negative = inhibition) at 10uM” value is listed as -38.6%.

Regarding `CCCCC(=O)NC1(C(F)(F)F)C(=O)Nc2c1c(=O)[nH]c(=O)n2Cc1ccco1` (centres unmarked), the “hERG current change (%, negative = inhibition) at 10uM” value is on record as -1.02%.

With `N/C(=N\OC(=O)N1CCOCC1)c1ccc(Br)cc1`, the “hERG current change (%, negative = inhibition) at 10uM” value was found to be 17.6%.

For `CCCCc1cc(=O)oc2cc(C)cc(OCC(=O)NC(Cc3ccc(Cl)cc3)C(=O)O)c12` (centres unmarked), the “hERG current change (%, negative = inhibition) at 10uM” value is reported as 12.3%.

In the case of `CCn1nc(CC(=O)Nc2ccc(-n3cnnn3)c(C)c2)c2ccccc2c1=O`, the “hERG current change (%, negative = inhibition) at 10uM” value was -13%.

As to `CC(C)OC(=O)CSc1nc(N)c(C#N)cc1C#N`, the “hERG current change (%, negative = inhibition) at 10uM” value is reported as 1.38%.

Take `COc1ccc(C2=NN(C(=O)CN3CCCC3)C(c3ccc(OC)cc3)C2)cc1` (centres unmarked): the “hERG current change (%, negative = inhibition) at 10uM” value is on record as -40.7%.

Consider `Cc1nc2ncnn2c(C)c1CCC(=O)Nc1ccc(S(=O)(=O)N2CCCCCC2)cc1`, for which the “hERG current change (%, negative = inhibition) at 10uM” value was -1.25%.

Regarding `COCCCNC(=O)CCc1ccccc1`, the “hERG current change (%, negative = inhibition) at 10uM” value amounted to 28.1%.
